PubChem BioAssay AID651820 (National Center for Advancing Translational Sciences (NCATS), 2012)
In all, about 340,000 compounds went through this assay and about 12,000 (3.5%) were called active. The shares of active, inactive and inconclusive entries below differ from those in the screen. The call rests on the fitted dose curve; in most records, active means well fitted inhibition curve with a large enough effect; inconclusive means small, poorly fitted or top-dose-only effect, or another doubt; inactive means no such curve, though single readings can be large or run the other way. Potencies of inconclusive entries are left out as doubtful fits.

assay: qHTS Assay for Inhibitors of Hepatitis C Virus (HCV); conditions: Huh7.5.1 HCVcc-Cre (HCVcc is cell-culture hepatitis C virus) infection, luciferase reporter, 44 h; activity change, negative = inhibition: at 41.8 µM (top of the series) unless noted
Outline: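 Seed cells (1,000/well) for 4 h; treat with compound and infect with HCVcc-Cre, moi about 0.5. Incubate 44 h, then detect luciferase activity.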
On the % scale 0 is the no-effect control and ±100 the full control effect; potency means the concentration at half of the fitted maximal effect; tags describe the fitted curve by direction and shape.

SMILES	Potency	activity change, negative = inhibition
N#Cc1ccc(COc2cccc3cccnc23)cc1	inconclusive [inhibitor, single point]	–
COc1ccc(OCC(=O)O/N=C(\N)c2ccc(OC)c(OC)c2)cc1	inconclusive [inhibitor, full curve]	–
CC(Oc1ccccc1)C(=O)Nc1ccc(S(=O)(=O)NCC2CCCO2)cc1 (stereo not given)	inconclusive [inhibitor, single point]	–
COc1cc(/C=N/NC(=O)c2ccccc2Cl)ccc1Oc1ccc([N+](=O)[O-])cn1	active: 11.2 µM	–
COc1ccc(COc2cc(-c3cccc(OC)c3)nc3ccc(NC(=O)c4ccc(N(C)C)cc4)cc23)cc1	inconclusive [inhibitor, full curve, poor fit]	–
COc1ccc(C(=O)N2Cc3cnnn3-c3ccccc3C2C#N)cc1 (stereo not given)	–	inactive: 10.8% [at 8.37 µM]
Cc1ccc(-c2ccc(/C=N/c3ncn[nH]3)o2)cc1Cl	inactive	–
CC(C)[C@H](NC(=O)N1CCn2c1nc1ccccc12)C(=O)N[C@@H](Cc1ccccc1)C(=O)O	inactive	–
CC(C)Cc1cc(C(=O)NCc2cccs2)no1	inactive	–
CCc1ccc(-c2nc(CSCC(=O)NCc3ccco3)c(C)o2)cc1	inactive	–
c1ccc2sc(-c3ccncc3)nc2c1	inconclusive [inhibitor, single point]	–
CC(=O)c1cc(F)c(N2CCN(C(=O)COc3ccccc3F)CC2)cc1C	inconclusive [inhibitor, partial curve]	–
Cc1c(C)n(CCN(C)C)c2ccc(C(=O)OCCN(C)C)cc12	active: 11.2 µM	–
O=C(CSc1n[nH]c(-c2ccc(S(=O)(=O)NC3CCCCC3)cc2)n1)N1CCCC1	inactive	–
O=C(c1ccc(COc2ccccc2Cl)o1)N1CCN(c2ccccc2)CC1	inconclusive [inhibitor, single point]	–
Cc1ccccc1Cn1ccc(NC(=O)c2cc3nc(-c4ccco4)cc(C(F)(F)F)n3n2)n1	inconclusive [inhibitor, full curve, poor fit]	–
C/C(=N\NC(=O)c1cc(C)nc2ccccc12)c1ccco1	inactive	–
Cc1ccoc1C(=O)Nc1cccc(Oc2ccccc2)c1	inconclusive [inhibitor, single point]	–
O=[N+]([O-])c1cc(Cl)c(O)c(-[n+]2c(-c3ccccc3)cc(-c3ccccc3)cc2-c2ccccc2)c1	inconclusive [inhibitor, partial curve]	–
COc1ccc(-c2cc(C(=O)N3CCOCC3)c3cc(C)ccc3n2)cc1	inactive	–
COc1ccc(OC)c2[nH]c(=O)c(CCNC(=O)C(=O)c3c[nH]c4ccccc34)cc12	inconclusive [inhibitor, partial curve]	–
Cc1ccc(C2C(C#N)=C(N)N(c3cccnc3)C3=C2C(=O)CCC3)c(C)c1 (stereo not given)	inactive	–
CC(=O)OC1(C(C)=O)CCC2C3CC(C(F)(F)F)C4=CC(=O)CCC4(C)C3CCC21C (stereo not given)	–	inconclusive: -54.2% [inhibitor]
CCOc1ccccc1NC(=O)C1Cc2ccccc2CN1S(C)(=O)=O (stereo not given)	inactive	–

SMILES	Potency	activity change, negative = inhibition
O=C(Nc1ccncc1)Nc1cccc(Cl)c1	inactive	–
COc1ccccc1CNC(=O)COC(=O)/C=C/c1ccc2c(c1)OCO2	inactive	–
COCCNC(=O)c1onc(CCl)c1C(=O)OC	inactive	–
Cc1ccc(N(C(=O)c2csnn2)C(C(=O)NC2CCCCC2)c2cccnc2)c(C)c1 (stereo not given)	inactive	–
CN(C)S(=O)(=O)c1ccc(C(=O)OCC(=O)Nc2sc3c(c2C#N)CCCCC3)cc1	inconclusive [inhibitor, single point]	–
COc1cc(NC(=O)c2cccs2)c(OC)cc1NC(=O)c1ccco1	inconclusive [inhibitor, full curve]	–
CN1c2ccsc2/C(=N/Nc2ccccc2)CS1(=O)=O	inconclusive [inhibitor, partial curve]	–
CN1C(=O)C(Cc2cccc3ccccc23)C(=O)N(C)C1=O	inactive	–
CC(C)(C)n1nnnc1C(c1cccnc1)N1CCN(C2CCCCC2)CC1 (stereo not given)	inactive	–
O=C(Cc1ccc(F)cc1)Nc1nc(-c2ccc(F)c(F)c2)cs1	inconclusive [inhibitor, single point]	–
CCOC(=O)c1c(-n2cccc2)sc2c1CCCC2=O	inconclusive [inhibitor, single point]	–
CC(C)c1nc(CNC(=O)C2CCC(=O)N(CCc3ccc(Cl)cc3)C2)no1 (stereo not given)	inactive	–
COc1ccc2c(Cl)c(C(=O)N/N=C/c3c(C)[nH]c4ccccc34)sc2c1	inconclusive [inhibitor, full curve]	–
COc1ccc(-c2c(C)nc3c(-c4ccccn4)cnn3c2N)cc1	inconclusive [inhibitor, partial curve, poor fit]	–
CC1=Nc2ccccc2N=C(NC(=O)CSC(=S)N2CCCCC2)C1c1ccccc1 (stereo not given)	inconclusive [inhibitor, single point]	–
CC(O)(CS(=O)(=O)Cc1cccc(C(F)(F)F)c1)C(=O)Nc1cccc(C(F)(F)F)c1 (stereo not given)	inconclusive [inhibitor, partial curve]	–
O=C(Oc1ccc2[nH]cc(CCN3C(=O)c4ccccc4C3=O)c2c1)c1ccco1	inactive	–
C=CCn1cc(C(=O)NCCCOC)c(=O)c2cc(S(=O)(=O)N(CC)CC)ccc21	inconclusive [inhibitor, single point]	–
Fc1cccc(Cl)c1Cn1nnc2c(NCc3ccncc3)ncnc21	active: 10 µM	–
Cn1nc(C(=O)Nc2ccc3c(c2)OCCO3)c2ccccc2c1=O	inconclusive [inhibitor, single point]	–
COc1ccccc1CC(NC(C)=O)C(=O)NC1CCN(c2nnnn2-c2ccccc2)CC1 (stereo not given)	inconclusive [inhibitor, partial curve, poor fit]	–
Cc1ccc(S(=O)(=O)N2CC(=NO)C2)cc1	inactive	–
COc1ccc2cc1Oc1ccc(cc1)C[C@H]1c3cc(c(OC)cc3CCN1C)Oc1c(OC)c(OC)cc3c1[C@H](C2)N(C)CC3	inconclusive [inhibitor, single point]	–
Cc1ccc2c(c1)N(C(=O)CCC(=O)NCCCN1CCC(Cc3ccccc3)CC1)CCO2	inconclusive [inhibitor, partial curve]	–

SMILES	Potency	activity change, negative = inhibition
O=C(O)c1ccc(N=C2SCC(=O)N2Cc2ccccc2)cc1	inconclusive [inhibitor, single point]	–
CCCCn1c(=NC(=O)c2cccnc2)c(C(=O)OCC)cc2c(=O)n3ccccc3nc21	inconclusive [inhibitor, partial curve]	–
CC(C)CCNC(=O)CN(C(=O)Cn1nnc(-c2ccccc2F)n1)c1cccc2c1CCCC2	inconclusive [inhibitor, single point]	–
COC(=O)c1c(NC(=O)c2ccc(S(=O)(=O)N3CCOCC3)cc2)sc2c1CCN(C)C2	inconclusive [inhibitor, single point]	–
CC(=O)C1=C(C)Nc2ncnn2C1c1cccc(Br)c1 (stereo not given)	inactive	–
COCCNC(=O)CNC(=S)N(Cc1ccccc1)Cc1cccnc1	inconclusive [inhibitor, partial curve, poor fit]	–
CC(C)Nc1nc2ccccc2c(=O)[nH]1	inactive	–
CSc1nc(N(CCO)CCO)c2sc3nc(-c4ccco4)c4c(c3c2n1)CCC4	active: 6.31 µM	–
N/C(=N\O)C1COc2ccccc2O1 (stereo not given)	inconclusive [inhibitor, partial curve]	–
COCCn1c(CN2CCN(C(=O)c3ccco3)CC2)nc2c1c(=O)n(C)c(=O)n2C	inactive	–
Cc1cc(SCCOc2ccc(Br)cc2)nc(N)n1	inconclusive [inhibitor, single point]	–
Cc1nc(SCC(=O)NCc2ccco2)c2oc3ccccc3c2n1	inconclusive [inhibitor, single point]	–
C[C@@H]1CN([C@@H](C)CO)C(=O)c2cccc(NC(=O)Nc3ccc4c(c3)OCO4)c2O[C@H]1CN(C)S(=O)(=O)c1cn(C)cn1	inactive	–
CCSc1nnc(NC(=O)CSc2nc3c(c(=O)n2C)SC(C)C3)s1 (stereo not given)	inconclusive [inhibitor, single point]	–
CC(=O)c1ccc(OCc2cc([N+](=O)[O-])cc3c2OCOC3)cc1	inconclusive [inhibitor, partial curve, poor fit]	–
CCc1nnc(NC(=O)CSc2nc(C)cc(C)c2C#N)s1	inactive	–
C=CCn1c(SCc2cccc(F)c2)nc2cc(C(=O)N3CCC(C(N)=O)CC3)ccc2c1=O	inconclusive [inhibitor, full curve, poor fit]	–
CC(C)OC(=O)NC(C)(C)COC(=O)Nc1cccc(Cl)c1	inconclusive [inhibitor, single point]	–
O=C(CN1CCN(c2cccc(C(F)(F)F)c2)CC1)N(C1CC1)C1CCS(=O)(=O)C1 (stereo not given)	inactive	–
COc1ccccc1-n1cc([C@@H]2C[C@H]3CN(c4ccccc4)C(=O)[C@]34CCCN24)cn1	active: 5.62 µM	–
O=C(COc1ccc2ccc(=O)oc2c1)Nc1ccc(CN2CCOCC2)cc1	inconclusive [inhibitor, single point]	–
Cc1ccccc1OCCNc1cc(N2CCN(CCO)CC2)ccc1[N+](=O)[O-]	inconclusive [inhibitor, single point]	–
